# Data taken from a collection of fitness landscapes (doi:10.1016/j.celrep.2020.107928).
# Over roughly 81,000 sequences, “one-hybrid fitness for binding parS DNA” has its median near -0.17; the highest 2% begin near 0.51. The list shows a part of the results.
# B1: Caulobacter ParB omega fusion; a variant is named by its letters at X, in order, B8GW30 (parent)
# chain: MESVVVGEPGMSEGRRGLGRGLSALLGEVDAAPAQAPGEQLGGSREAPIEILQRNPDQPRRTFREEDLEDLSNSIREKGVLQPILVRPSPDTAGEYQIVAGERAWRAAQRAGLKTVPIMVRELDDLAVLEIGIIENVQRADLNVLEEALSYKVLMEKFERTQENIAQTIGKSXSHVANXMRLLXLPDEVQSYLVSGELTAXHARAIAAAADPVALAKQIIEGGLSVRETEALARKAPNLSAGKSKGGRPPRVKDTDTQALESDLSSVLGLDVSIDHRGSTGTLTITYATLEQLDDLCNRLTRGI
# Variants of: B1
# Test: one-hybrid fitness for binding parS DNA (scaled: cognate 1, non-cognate 0); higher = stronger binding
# Conditions: with parS DNA site
# Outline: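 Fitness is the rescaled log change in variant-to-wild-type read ratio, measured by Illumina sequencing of plasmids before and after bacterial one-hybrid selection. The scale puts cognate at 1 and non-cognate at 0. Selection of Caulobacter ParB libraries, four specificity codons randomised, took place in E. coli USO with a HIS3 reporter, site 19 bp from the promoter, over 48 hours at 37°C on M9-minus-histidine with 0.1 mM IPTG and 5 mM 3-AT.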
row,Variant,one-hybrid fitness for binding parS DNA
1,PYAV,≤ 0.2
2,CPSC,≤ 0.2
3,PLYN,≤ 0.2
4,PCLK,≤ 0.2
5,CRTG,≤ 0.2
6,WSCL,≤ 0.2
7,YWLR,≤ 0.2
8,HSWA,≤ 0.2
9,MWTR,≤ 0.2
10,TKSI,≤ 0.2
11,CWQN,≤ 0.2
12,GPSL,≤ 0.2
13,CYIR,≤ 0.2
14,GNLD,≤ 0.2
15,APNR,≤ 0.2
16,ICTR,≤ 0.2
17,NQLV,≤ 0.2
18,IRDA,≤ 0.2
19,NVQI,≤ 0.2
20,HMES,≤ 0.2
21,VMQR,0.262
22,TWFC,≤ 0.2
23,SEEY,≤ 0.2
24,CKTP,≤ 0.2
25,NHAD,≤ 0.2
26,CMGG,≤ 0.2

row,Variant,one-hybrid fitness for binding parS DNA
1,PPNG,≤ 0.2
2,GHAC,≤ 0.2
3,HAMS,≤ 0.2
4,GVRQ,≤ 0.2
5,SRHL,≤ 0.2
6,GTHS,≤ 0.2
7,TSHK,≤ 0.2
8,EIFV,0.223
9,WHPC,≤ 0.2
10,RHHV,≤ 0.2
11,IQAC,≤ 0.2
12,ERRR,≤ 0.2
13,EGHR,≤ 0.2
14,ECHR,≤ 0.2
15,PRFY,≤ 0.2
16,HCLR,≤ 0.2
17,PHLI,≤ 0.2
18,PPYL,≤ 0.2
19,TTHI,≤ 0.2
20,RPHD,≤ 0.2
21,AKPK,≤ 0.2
22,LKWT,≤ 0.2
23,SNVT,≤ 0.2
24,ATSF,≤ 0.2
25,CMGF,≤ 0.2
26,NAKM,≤ 0.2

row,Variant,one-hybrid fitness for binding parS DNA
1,NHML,≤ 0.2
2,QQPG,≤ 0.2
3,RMKY,0.782
4,FDTR,≤ 0.2
5,SNPG,≤ 0.2
6,DWSR,0.213
7,RKHH,≤ 0.2
8,NHIR,≤ 0.2
9,YDHR,≤ 0.2
10,DREI,≤ 0.2
11,TPVL,≤ 0.2
12,AEDY,≤ 0.2
13,HLWA,≤ 0.2
14,TCKV,≤ 0.2
15,WDAD,≤ 0.2
16,REAF,≤ 0.2
17,VPPS,≤ 0.2
18,NLTS,≤ 0.2
19,RLYE,≤ 0.2
20,AVTL,≤ 0.2
21,TRFV,≤ 0.2
22,SDMP,≤ 0.2
23,FYDS,≤ 0.2
24,PAYM,≤ 0.2
25,TYCH,≤ 0.2
26,GEMG,≤ 0.2

row,Variant,one-hybrid fitness for binding parS DNA
1,QWSG,≤ 0.2
2,IGKR,≤ 0.2
3,LYTL,≤ 0.2
4,LRGK,≤ 0.2
5,SRHN,≤ 0.2
6,QRIP,≤ 0.2
7,SFQA,≤ 0.2
8,KGRF,≤ 0.2
9,AWHS,≤ 0.2
10,MSTY,≤ 0.2
11,PRRH,≤ 0.2
12,SSTI,≤ 0.2
13,GTES,≤ 0.2
14,TENR,≤ 0.2
15,RQTP,≤ 0.2
16,YMRM,≤ 0.2
17,FKPP,0.292
18,RECK,≤ 0.2
19,GISW,≤ 0.2
20,RVTP,≤ 0.2
21,SYAL,≤ 0.2
22,NILV,≤ 0.2
23,ANRV,≤ 0.2
24,RMSS,0.977
25,FGFG,≤ 0.2
26,TNVP,≤ 0.2

row,Variant,one-hybrid fitness for binding parS DNA
1,WLMM,≤ 0.2
2,RICS,1.02
3,AKGT,≤ 0.2
4,GPIL,≤ 0.2
5,QWRP,≤ 0.2
6,KEDV,≤ 0.2
7,QYCY,≤ 0.2
8,TRAR,≤ 0.2
9,PPSE,≤ 0.2
10,YITS,≤ 0.2
11,CLRA,≤ 0.2
12,NLCR,≤ 0.2
13,QEKK,≤ 0.2
14,HRIA,≤ 0.2
15,YSVL,≤ 0.2
16,TFCC,≤ 0.2
17,QTRM,≤ 0.2
18,DYLL,≤ 0.2
19,LRKE,≤ 0.2
20,TSYY,≤ 0.2
21,GVER,≤ 0.2
22,AAVV,≤ 0.2
23,LFPI,≤ 0.2
24,YERG,≤ 0.2
25,MSHV,≤ 0.2
26,EVLY,≤ 0.2

row,Variant,one-hybrid fitness for binding parS DNA
1,RMGH,≤ 0.2
2,YWCL,≤ 0.2
3,RLLW,0.241
4,AWCL,≤ 0.2
5,QKAG,≤ 0.2
6,KGWD,≤ 0.2
7,PSIS,≤ 0.2
8,NNGF,≤ 0.2
9,DPTN,≤ 0.2
10,GKCT,≤ 0.2
11,GHYY,≤ 0.2
12,QWGS,≤ 0.2
13,SPIV,≤ 0.2
14,ATPT,≤ 0.2
15,VRGH,≤ 0.2
16,EGKG,0.219
17,SYTD,≤ 0.2
18,ADLG,≤ 0.2
19,KFGW,≤ 0.2
20,DGTL,≤ 0.2
21,SQVR,≤ 0.2
22,ADVC,≤ 0.2
23,HLKS,≤ 0.2
